Experimental data as given in patent publication EP4814006A2 (NAVIGO PROTEINS GMBH, dated 2026).

T1: VEGF (vascular endothelial growth factor) (human, UniProt P15692-4 27-191, limits assumed)
T1 construct: also called VEGF-A
T1 sequence (looked up): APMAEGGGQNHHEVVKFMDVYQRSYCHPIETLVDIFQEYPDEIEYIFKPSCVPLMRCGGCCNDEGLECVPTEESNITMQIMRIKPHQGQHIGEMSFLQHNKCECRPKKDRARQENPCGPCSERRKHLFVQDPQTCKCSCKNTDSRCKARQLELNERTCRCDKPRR

B1: Fusion protein SEQ ID NO: 5 (Aflibercept fused through a 15 amino acid GS-linker to the hyaluronic acid binding protein of SEQ ID NO: 1) (Fc fusion)
chain: SDTGRPFVEMYSEIPEIIHMTEGRELVIPCRVTSPNITVTLKKFPLDTLIPDGKRIIWDSRKGFIISNATYKEIGLLTCEATVNGHLYKTNYLTHRQTNTIIDVVLSPSHGIELSVGEKLVLNCTARTELNVGIDFNWEYPSSKHQHKKLVNRDLKTQSGSEMKKFLSTLTIDGVTRSDQGLYTCAASSGLMTKKNSTFVRVHEK[sequence of human IgG1 Fc not given][sequence of about 200 residues not given]
notes: It forms a homodimer and was expressed in HEK293 cells
B2: Fusion protein SEQ ID NO: 6 (Aflibercept fused through a 15 amino acid GS-linker to the hyaluronic acid binding protein of SEQ ID NO: 2) (Fc fusion)
chain: SDTGRPFVEMYSEIPEIIHMTEGRELVIPCRVTSPNITVTLKKFPLDTLIPDGKRIIWDSRKGFIISNATYKEIGLLTCEATVNGHLYKTNYLTHRQTNTIIDVVLSPSHGIELSVGEKLVLNCTARTELNVGIDFNWEYPSSKHQHKKLVNRDLKTQSGSEMKKFLSTLTIDGVTRSDQGLYTCAASSGLMTKKNSTFVRVHEK[sequence of human IgG1 Fc not given][sequence of about 200 residues not given]
notes: as for B1

Target: T1, VEGF (vascular endothelial growth …)
Test: ELISA per the heading of Example 3; the format of the VEGF assay is not described

Binder	EC50 [nM]
B1	< 1
B2	< 1
